Test results as given in PMC11249846 (Protein Science : A Publication of the Protein Society, 2024).

Target: Hsc70‐T204A (human, UniProt P11142, T204A)
Test: NMR titration

Sequence of UniProt P11142 (P11142 whole entry T204A): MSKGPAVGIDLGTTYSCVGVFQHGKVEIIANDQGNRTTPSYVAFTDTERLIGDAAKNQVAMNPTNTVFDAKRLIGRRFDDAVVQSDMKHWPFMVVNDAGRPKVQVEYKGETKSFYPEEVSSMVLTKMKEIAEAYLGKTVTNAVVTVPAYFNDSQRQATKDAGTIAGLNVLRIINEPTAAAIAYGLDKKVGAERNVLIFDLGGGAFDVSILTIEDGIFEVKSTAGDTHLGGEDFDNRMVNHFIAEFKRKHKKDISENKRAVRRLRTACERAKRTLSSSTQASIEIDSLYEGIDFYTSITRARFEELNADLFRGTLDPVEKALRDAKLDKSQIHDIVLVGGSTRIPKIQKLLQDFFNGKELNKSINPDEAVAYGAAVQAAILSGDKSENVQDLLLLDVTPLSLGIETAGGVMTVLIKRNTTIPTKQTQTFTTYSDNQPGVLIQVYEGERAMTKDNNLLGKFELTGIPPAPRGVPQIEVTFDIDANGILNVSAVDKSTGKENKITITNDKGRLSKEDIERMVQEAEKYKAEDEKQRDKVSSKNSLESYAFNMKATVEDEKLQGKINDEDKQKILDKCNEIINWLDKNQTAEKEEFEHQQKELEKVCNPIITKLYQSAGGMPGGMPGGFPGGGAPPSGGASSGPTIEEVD

binding result: binds
B1: (JD‐G/FR)‐S51E (domain or fragment, human, UniProt O60884 1-111, looked up)
chain: MANVADTKLYDILGVPPGASENELKKAYRKLAKEYHPDKNPNAGDKFKEIEFAYEVLSNPEKRELYDRYGEQGLREGSGGGGGMDDIFSHIFGGGLFGFMGNQSRSRNGRR
